# Data published in PubChem BioAssay AID493208 (National Center for Advancing Translational Sciences (NCATS), 2011).
# The whole screen tested about 44,000 compounds, of which about 340 (0.77%) were called active. Roughly 5% stayed inconclusive and do not appear here. The call rests on the fitted dose curve; in most records, active means well fitted inhibition curve with a large enough effect; inconclusive means small, poorly fitted or top-dose-only effect; inactive means flat fitted curve, though single readings scatter. The list shows a part of the results.
# Test: Acumen qHTS Assay for Inhibitors of the mTORC1 Signaling Pathway in MEF (Tsc2-/-, p53-/-) Cells: Sytravon; further: nearly all actives have a fitted effect of over 50% in size;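 on activity change, negative = inhibition: plate controls were DMSO for no effect and rapamycin for full effect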
# Settings: phospho-rpS6 immunofluorescence/PI, 24 h; series mostly up to 38.3 µM; activity change, negative = inhibition: at the top concentration
# Outline: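 Plate MEFs (Tsc2-/-, p53-/-, empty vector) in DMEM/10% FBS; after 24 h add compound, incubate 24 h at 37 degree Celsius; fix in PFA/TX-100, block, stain phospho-rpS6 and 10 uM PI; scan at 488 nm; report % positive cells.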
# Potency means the concentration at half of the fitted maximal effect.
Structure (SMILES),"activity change, negative = inhibition",Potency
COc1ccccc1NC(=O)c1cc(S(=O)(=O)NCCC2=CCCCC2)ccc1F,inactive: -1.04%,–
CNC(=O)C1CCN(c2nc3ccccc3nc2C(F)(F)F)CC1,inactive: -2.98%,–
CCc1ccc(NC(=O)N2CCN(C(=O)c3nsc4ccccc34)CC2)cc1,inactive: -1.46%,–
O=C(Nc1ccc(C(F)(F)F)cc1)N1CCC(N2CCCCC2)CC1,inactive: -4.94%,–
Cc1ccsc1CN1CCc2nc(N3CCN(c4ccccc4F)CC3)ncc2C1,inactive: 8.1%,–
COc1cc(Cl)c(C)cc1NC(=O)c1cnc2c(-c3cccc(C)c3)c(C)nn2c1C,inactive: 0.799%,–
CNC(=O)c1ccc(CSc2nc3ccncc3n2Cc2ccc(C)cc2)cc1,inactive: -2.44%,–
CCCN(C(=O)Cn1cc(S(=O)(=O)N2CCN(c3ccccc3F)CC2)c2ccccc2c1=O)c1cccc(C)c1,inactive: -0.993%,–
CC(C)CN(CCNC(=O)c1cc(-c2ccc(Cl)s2)nc2ccccc12)CC(C)C,inactive: -2.08%,–
COc1cccc(CNC(=O)Cn2c(C)c3cnn(-c4ccccc4)c(=O)c3c2C)c1,inactive: -5.98%,–
CC(C)(C)C(=O)Cn1c(=O)n(-c2ccc(Cl)c(Cl)c2)c(=O)c2c3c(sc21)CCCC3,inactive: -4.34%,–
COCc1cc(C)nc2sc(C(=O)Nc3cc(C)ccc3F)c(N)c12,inactive: 10.7%,–
Cc1cc(C)cc(N2CCn3c2nc2c3c(=O)n(CCCc3ccccc3)c(=O)n2C)c1,inactive: -6.76%,–
CN(C(=O)CSc1nnc(-c2ccc([N+](=O)[O-])cc2)o1)c1ccccc1,inactive: 3.94%,–
Cc1ccc(CNC(=O)CCCn2c(=O)c3ccccc3n(Cc3ccc(Cl)cc3)c2=O)cc1,inactive: -12.9%,–
COc1ccc(CCNC(=O)Cn2cc(C(=O)c3ccc(F)cc3)c(=O)c3ccc(C)nc32)cc1OC,inactive: -15.8%,–
Cc1ccc(CNC(=O)CCC(=O)N2CCSc3ccccc32)cc1,inactive: -2.65%,–
Cc1ccc(-c2nc3cc(C(C)C)ccc3o2)cc1NC(=O)c1cc([N+](=O)[O-])ccc1N1CCOCC1,inactive: -8.38%,–
COCCCNC(=O)C1CCCN(c2nn3cc(-c4ccc(C)cc4)nc3s2)C1 (stereo not given),inactive: 2.28%,–
Cc1cccc(-c2nc3ccccc3n3c(-c4ccccc4)c4c(=O)n(C)c(=O)n(C)c4c23)c1,inactive: 4.42%,–

Structure (SMILES),"activity change, negative = inhibition",Potency
O=C(Nc1ccc(F)c(Cl)c1)N1CCC(CN2CCc3ccccc3C2)CC1,inactive: -15.4%,–
CCC(C)NC(=O)CCc1c(C)nc2cc(-c3ccc(OC)cc3OC)nn2c1C (stereo not given),inactive: -2.51%,–
Cc1cccc(CCNC(=O)C2CCN(c3nc4ccccc4nc3C(F)(F)F)CC2)c1,inactive: 4.9%,–
Cc1ccc(-n2ncc3c(NCC(C)C)ncnc32)c(C)c1,inactive: -12.1%,–
COc1ccccc1-c1cc2nc(C)c(CCC(=O)Nc3cc(C)ccc3C)c(C)n2n1,inactive: -6.47%,–
CCc1ccc(NC(=O)Cn2cnc3sc(C)c(S(=O)(=O)N4CCN(c5ccccc5OC)CC4)c3c2=O)cc1,inactive: 0%,–
Cc1oc(-c2ccccc2F)nc1CSc1nnc(C)n2c1cc1occc12,inactive: -12.8%,–
CC(C)(C)OC(=O)N1CCC(c2c(C(=O)N3CCOCC3)cnn2-c2cccc(F)c2)CC1,inactive: 0.931%,–
Cc1ccc(C)c(NC(=O)Nc2cccc(-c3cn4cccnc4n3)c2)c1,inactive: 10.5%,–
COc1ccc(-n2nnc(-c3nc(-c4cccs4)no3)c2N)cc1,inactive: 1.01%,–
O=C(Nc1ccc(C(=O)N2CCN(c3ccccc3)CC2)cc1)c1nsc2ccccc12,inactive: 11.2%,–
CCOC(=O)c1cnc2ccc(Cl)cc2c1Nc1ccc(N2CCOCC2)cc1,inactive: -0.272%,–
CCCN(CCC)CCNC(=O)C1CCN(c2nc3ccc(CC)cc3s2)CC1,–,active: 16.5 µM
O=C(CSc1nc2c(c(=O)[nH]1)CN(Cc1ccc3c(c1)OCO3)CC2)Nc1ccc(F)c(F)c1,inactive: -1.97%,–
CCOc1ccc(CCNC(=O)c2cc3sc(CC)cc3n2C)cc1OCC,inactive: -6.32%,–
Cc1ccc(S(=O)(=O)N2CCC(n3c(C)nc4cccnc43)CC2)c(C)c1,inactive: -6.17%,–
Cc1ccc(S(=O)(=O)c2cn(Cc3ccc(F)cc3)c3cc(N4CCCC4)c(F)cc3c2=O)cc1,inactive: -1.84%,–
Cc1ccc(CNC(=O)c2ccc(-c3nc(CS(=O)(=O)c4ccc(C)cc4)c(C)o3)cc2)cc1,inactive: 1.64%,–
Cc1[nH]c2ccccc2c1SCCNC(=O)c1ccccc1F,inactive: 2.89%,–
CC(C)Oc1ccc(CNC(=O)Cn2ncn3nc(-c4cccs4)cc3c2=O)cc1,inactive: -0.098%,–

Structure (SMILES),"activity change, negative = inhibition",Potency
COC(=O)c1ccccc1-n1c(CCC(=O)O)ccc1-c1ccccc1,inactive: -13.9%,–
O=C(NCc1ccccc1Cl)c1cc2cccc3c2n1CCS3,inactive: -10.4%,–
COc1cccc(CNC(=O)c2ccc3c(c2)nc2n3CCC(C)C2)c1OC (stereo not given),inactive: 1.88%,–
CCOC(=O)C1CCCN(C(=O)c2[nH]c3ccccc3c2Sc2ccc(Cl)cc2)C1 (stereo not given),inactive: -2.97%,–
COc1ccc(C(=O)NCC(c2ccco2)S(=O)(=O)c2cccs2)cc1OC (stereo not given),inactive: 1.72%,–
Cc1ccnc(NS(=O)(=O)c2ccc(NC(=O)c3nc(SC(C)C)ncc3Cl)cc2)n1,inactive: 3.11%,–
Cc1cc(C)c2oc(C(=O)Nc3c(C(=O)Nc4ccccc4)oc4ccccc34)cc(=O)c2c1,inactive: -2.89%,–
CCCCn1cc(S(=O)(=O)c2ccc(Cl)cc2)c(=O)c2cc(F)c(N3CCCCC3)cc21,inactive: -8.9%,–
Cn1c(SCc2ccc(F)cc2)nc2ccc(C(=O)NCc3ccccc3)cc21,inactive: -1.16%,–
Cc1nc2ccc(S(=O)(=O)NC(C(=O)NCc3ccc(Cl)cc3)C(C)C)cc2s1 (stereo not given),inactive: -26.6%,–
COc1cc2c(-c3ccccc3Cl)nc3c(c(C)nn3-c3ccccc3)c2cc1OC,inactive: 6.52%,–
Cc1cccc(C(=O)Nc2ccccc2C(=O)OCc2cc(=O)n3nc(C4CC4)sc3n2)c1,inactive: -0.0585%,–
CCOC(=O)c1c(-c2ccc(OC)c(OC)c2)csc1NC(=O)c1ccc(F)cc1,inactive: 4.37%,–
O=C(C1CCN(c2nc3ccccc3[nH]2)CC1)N1CCN(c2cccc(Cl)c2)CC1,inactive: -10.2%,–
COc1cccc(N2C(=O)CSC23C(=O)N(CC(=O)NCc2ccc(C)cc2)c2ccccc23)c1 (stereo not given),inactive: 4.17%,–
CSC1=NC2(CCN(C(=O)NC3CCCCC3)CC2)N=C1c1ccc(C(C)(C)C)cc1,inactive: -14.6%,–
CCc1ccc2occ(CC(=O)Nc3sc4c(c3C(=O)OC)CCC4)c2c1,inactive: 0%,–
COc1cccc(CNCCSc2nnnn2C)c1OCc1ccc(Cl)cc1,inactive: -0.895%,–
CCCN(CCC)CCCNC(=O)c1cn(CC)c2ccc(S(=O)(=O)N3CCc4ccccc4C3)cc2c1=O,inactive: -2.93%,–
CCc1ccc(Cn2nnc(C(=O)Nc3ccc(C)cc3)c2N)cc1,inactive: 0.96%,–
